About 220 (0.56%) of roughly 39,000 compounds showed activity. This is one part of the list.
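Further: static incubation at 37 °C against the wild-type strain, values averaged over two biological replicates.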

The test system of the test is Escherichia coli K-12 BW25113. Nature of the test: relative growth (OD600 normalised to plate interquartile mean) (fraction); higher = less growth inhibition, active = 0.2 or less. The following applies: 50 µM; LB; incubation time: overnight (16-24 h).
As for `CO[C@H]1CN(C)C(=O)c2ccc(NC(=O)Nc3ccccc3F)cc2OC[C@H](C)N(Cc2ccccc2C(=O)O)C[C@@H]1C`, the relative growth was inactive: 1.02.
In the case of `O=C1OCCC/C=C\[C@H]2O[C@@]34C=CCN(c5ccc6ccccc6c5)C(=O)[C@H]3N(CCCCCO)C(=O)[C@@H]4[C@@H]12`, the relative growth is inactive: 0.985.
For the molecule `Cc1noc(C)c1S(=O)(=O)Nc1ccc2c(c1)C(=O)N([C@@H](C)CO)C[C@H](C)[C@H](CN(C)C(=O)NC(C)C)O2`, the relative growth is inactive: 1.01.
As for `Cc1noc(C)c1S(=O)(=O)N(C)C[C@@H]1Oc2ccc(NS(=O)(=O)c3ccc(Cl)cc3)cc2CC(=O)N([C@H](C)CO)C[C@H]1C`, the figure is inactive: 1; as for `C[C@@H]1CN([C@@H](C)CO)C(=O)c2cc(NC(=O)c3ccncc3)ccc2O[C@@H](C)CCCCO[C@@H]1CN(C)C(=O)Nc1ccccc1`, inactive: 0.976; as for `Cc1cc(C(C)(C)CC(C)(C)C)ccc1OCCOCC[N+](C)(C)Cc1ccccc1.[Cl-]`, active: 0.0463.
As for `CN(C)CC(=O)N[C@@H]1CC[C@H](CCNC(=O)C2CC2)O[C@H]1CO`, the figure is inactive: 0.995; as for `CN(C)CC(=O)N[C@H]1CC[C@H](CC(=O)O)O[C@H]1CO`, inactive: 1.03; as for `O=C(C[C@@H]1CC[C@H](NC(=O)CN2CCOCC2)[C@@H](CO)O1)NCCc1ccccc1`, inactive: 1.
As for `Cc1noc(C)c1NC(=O)Nc1ccc2c(c1)C(=O)N([C@H](C)CO)C[C@@H](C)[C@H](CN(C)CC1CCCCC1)OCCCC[C@@H](C)O2`, the figure is inactive: 0.96; as for `C[C@@H]1CCCCO[C@@H](CN(C)C(=O)Nc2ccc(C(F)(F)F)cc2)[C@H](C)CN([C@@H](C)CO)C(=O)c2cc(NC(=O)Nc3ccc(F)cc3)ccc2O1`, inactive: 1.03; as for `C[C@@H]1CCCCO[C@H](CN(C)C(=O)C2CCCCC2)[C@H](C)CN([C@H](C)CO)C(=O)c2cc(NC(=O)c3ccncc3)ccc2O1`, inactive: 1.01.
For the molecule `Cc1noc(C)c1NC(=O)N(C)C[C@@H]1Oc2c(NS(=O)(=O)c3ccccc3)cccc2C(=O)N([C@@H](C)CO)C[C@H]1C`, the relative growth is inactive: 1.
The value for `C[C@H]1CN([C@@H](C)CO)C(=O)c2cc(NS(=O)(=O)c3ccc(F)cc3)ccc2O[C@@H]1CN(C)S(C)(=O)=O` was inactive: 1.02; that for `O=C1OC2(c3ccccc31)c1cc(I)c(O)c(I)c1Oc1c2cc(I)c(O)c1I` was inactive: 1.03; that for `COc1ccc2cc(S(=O)(=O)N[C@H](CC(=O)N[C@H](Cc3ccc(CN4[C@H](C)CCC[C@@H]4C)cc3)C(=O)N(C)C(C)C)c3ccc4c(c3)OCO4)ccc2c1` was inactive: 1.02.
On to `C[C@@H]1CCCCO[C@@H](CN(C)C(=O)C2CCCCC2)[C@H](C)CN([C@H](C)CO)C(=O)c2cc(NC(=O)NC3CCCCC3)ccc2O1`, for which the relative growth is inactive: 1.04.

For the origin of these results see the supplement of paper PMC9446081.
